# Assay results: the supplement of paper PMC8512760
# Some of the results follow. Most values come without repeats; read them as rough.
# Test system: HCC-1187
# Assay: cell viability relative to vehicle (% of vehicle); basal-like triple-negative breast cancer lines; higher = less cytotoxic
# Details: 10 µM; 72 h
# 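Further: stably firefly luciferase-GFP labeled cells in 96-well plates, viability read as luciferase photon flux after d-luciferin addition, treated wells normalized to vehicle wells, single-dose high-throughput screen.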
row,Compound,cell viability
1,C[N+](C)(CCOc1ccccc1)Cc1ccccc1.O=C(O)c1cc2ccccc2cc1[O-] [Bephenium Hydroxynaphthoate],131
2,CCN(CC)CCOC(=O)C1(C2CCCCC2)CCCCC1.Cl [Dicyclomine HCl],92.1
3,CN(C)CCOC(c1ccccc1)c1ccccc1.Cl [Diphenhydramine HCl],94.1
4,CCOc1ccc2ccccc2c1C(=O)NC1C(=O)N2C1SC(C)(C)C2C(=O)[O-].O.[Na+] (stereo not given) [Nafcillin Sodium],114
5,Cc1ccc(-n2nc(C(C)(C)C)cc2NC(=O)Nc2ccc(OCCN3CCOCC3)c3ccccc23)cc1 [BIRB 796 (Doramapimod)],117
6,C#CC1(O)CCC2C3CCc4cc(OC)ccc4C3CCC21C (stereo not given) [Mestranol],103
7,CC(=O)NC1C(N=C(N)N)C=C(C(=O)O)OC1C(O)C(O)CO (stereo not given) [Zanamivir],82.9
8,CS(=O)(=O)OCCCCOS(C)(=O)=O [Busulfan],94.5
9,Nc1nc(F)nc2c1ncn2C1OC(COP(=O)(O)O)C(O)C1O (stereo not given) [Fludarabine Phosphate (Fludara)],118
10,OCCOc1ccc(C(=C(CCCl)c2ccccc2)c2ccccc2)cc1 [Ospemifene],93.6
11,O=C(c1ccc(F)c(F)c1Nc1ccc(I)cc1F)N1CC(O)(C2CCCCN2)C1 (stereo not given) [Cobimetinib],60.5
12,CC1CC2C3CC(F)C4=CC(=O)C=CC4(C)C3(F)C(O)CC2(C)C1(O)C(=O)CO (stereo not given) [Flumethasone],104
13,Clc1ccc(COC(Cn2ccnc2)c2ccc(Cl)cc2Cl)cc1.O=[N+]([O-])O (stereo not given) [Econazole nitrate],96.8
14,CC(C)Cc1ccc(C(C)C(=O)O)cc1.NCCCCC(N)C(=O)O (stereo not given) [Ibuprofen Lysine],65.5
15,Cc1cc(C#N)cc(C)c1Oc1nc(Nc2ccc(C#N)cc2)nc(N)c1Br [Etravirine (TMC125)],56
16,CC1(C)SC2C(NC(=O)Cc3ccccc3)C(=O)N2C1C(=O)[O-].[Na+] (stereo not given) [Penicillin G Sodium],103
17,"CC(CN1CC(=O)NC(=O)C1)N1CC(=O)NC(=O)C1.Cl (stereo not given) [Dexrazoxane HCl (ICRF-187, ADR-529)]",85.2
18,CC[C@H](C)[C@@H]1NC(=O)[C@H](Cc2ccc(O)cc2)NC(=O)[C@@H](N)CSSC[C@@H](C(=O)N2CCC[C@H]2C(=O)N[C@@H](CC(C)C)C(=O)NCC(N)=O)NC(=O)[C@H](CC(N)=O)NC(=O)[C@H](CCC(N)=O)NC1=O [Oxytocin],86.4
19,CCOc1cc(C(CS(C)(=O)=O)N2C(=O)c3cccc(NC(C)=O)c3C2=O)ccc1OC (stereo not given),75.8
20,CCCCOc1ccc(C(=O)CCN2CCCCC2)cc1.Cl [Dyclonine HCl],81.8

row,Compound,cell viability
1,CCCNC(C)C(=O)Nc1c(C)csc1C(=O)OC.Cl (stereo not given) [Articaine HCl],85.4
2,Cl.NC(N)=NC(N)=NCCc1ccccc1 [Phenformin HCl],94.8
3,C=CC(=O)Nc1cc(Nc2nccc(-c3cn(C)c4ccccc34)n2)c(OC)cc1N(C)CCN(C)C,23.9
4,CC(Oc1cc(-c2cnn(C3CCNCC3)c2)cnc1N)c1c(Cl)ccc(F)c1Cl [(R)-Crizotinib],30.2
5,Cc1cc(C)c2c(c1)C(N(Cc1cc(C(F)(F)F)cc(C(F)(F)F)c1)c1nnn(C)n1)CCCN2CC1CCC(C(=O)O)CC1 (stereo not given),82.4
6,C#CCNC1CCc2ccccc21.CS(=O)(=O)O (stereo not given) [Rasagiline Mesylate],71.5
7,CC(=O)Oc1cc2c(s1)CCN(C(C(=O)C1CC1)c1ccccc1F)C2.Cl (stereo not given) [Prasugrel hydrochloride],113
8,CC(C)(C)NC(=O)C1CCC2C3CCC4NC(=O)C=CC4(C)C3CCC12C (stereo not given) [Finasteride],59.4
9,CCn1cc(C(=O)O)c(=O)c2cc(F)c(N3CCN(C)CC3)cc21.CS(=O)(=O)O [Pefloxacin Mesylate],68.3
10,CC1(C)CCC(c2ccc(Cl)cc2)=C(CN2CCN(c3ccc(C(=O)NS(=O)(=O)c4ccc(NC(CCN5CCOCC5)CSc5ccccc5)c(S(=O)(=O)C(F)(F)F)c4)cc3)CC2)C1 (stereo not given) [ABT-263 (Navitoclax)],61.6
11,CC12CCC3c4ccc(OC(=O)c5ccccc5)cc4CCC3C1CCC2O (stereo not given) [Estradiol Benzoate],112
12,COc1cccc(-c2ccc(NC(=O)C3=C(C(=O)O)CCC3)c(F)c2)c1 [Vidofludimus],60.4
13,COc1nc2ccc(Br)cc2cc1[C@@H](c1ccccc1)[C@@](O)(CCN(C)C)c1cccc2ccccc12 [Bedaquiline],91.8
14,Nc1nc(N)c2nc(-c3ccccc3)c(N)nc2n1 [Triamterene],114
15,CCC1(O)CC2CN(CCc3c([nH]c4ccccc34)C(C(=O)OC)(c3cc4c(cc3OC)N(C)C3C(O)(C(=O)OC)C(OC(C)=O)C5(CC)C=CCN6CCC43C65)C2)C1 (stereo not given) [vinblastine],52.2
16,CNC(=O)C(NC(=O)C(CC(C)C)C(O)C(=O)NO)C(C)(C)C (stereo not given) [Marimastat],52.1
17,CC12CCC(=O)C=C1C1CC1C1C2CCC2(C)C1C1CC1C21CCC(=O)O1 (stereo not given) [Drospirenone],98
18,CCC1OC(=O)C(C)C(OC2CC(C)(OC)C(O)C(C)O2)C(C)C(OC2OC(C)CC(N(C)C)C2O)C(C)(O)CC(C)CN(C)C(C)C(O)C1(C)O.O.O (stereo not given) [Azithromycin Dihydrate],102
19,NC(=O)c1ccc(I)c([N+](=O)[O-])c1 [Iniparib (BSI-201)],89.2
20,COc1cc2nc(N(C)CCCNC(=O)C3CCCO3)nc(N)c2cc1OC.Cl (stereo not given) [Alfuzosin HCl],82.8
